This note sets out measurements from the supplement of paper PMC10338343.

± gives the standard deviation. Over roughly 5,500 sequences, “pre-steady-state target cleavage rate” has its median near 0.1; the highest 2% begin near 0.64. Only a part is listed here, and it is no random draw.

In the assay the test system is MIWI (PIWIL1) piRISC loaded with piRNA #2 (30 nt). Nature of the assay: pre-steady-state target cleavage rate (min^-1); MIWI and MILI are mouse PIWI proteins and EfPiwi is from a freshwater sponge; tags in brackets are library labels; higher = faster piRNA-guided slicing of the target. The settings on record: guide: piRNA #2 5'p-UUAGGUAACCCAGUAGAUCCAGAGGAAUUC; auxiliary factor: 500 nM mouse GTSF1. The procedure, abridged:
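Cleave-'n-Seq reactions paired 0.1 nM transcribed, DNA-blocked target RNA library with 1 nM active affinity-purified piRISC holding one synthetic guide, plus or minus 500 nM GTSF1 partner protein, in HEPES–potassium acetate buffer at 33 °C for 0–8 or 0–960 min. After sequencing of uncleaved targets and normalisation to depth and weakly complementary targets, the pre-steady-state cleavage rate was taken from a burst-and-steady-state fit. Three trials were pooled, and k3 was capped at 0.0001 min^-1.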
For the sequence GAACUUCCUCUGGAUCUACUGGGUUACCUAA, the “pre-steady-state target cleavage rate” value amounted to 0.037 ± 0.02.

As to GAAUUCCUCUGGAUCGACUGGGUUACCUAA, the “pre-steady-state target cleavage rate” value is 0.295 ± 0.048.

Turning to CUUUUCCUGUGGAUCUACUGGGUUACCUUA, the “pre-steady-state target cleavage rate” value came out at 0.403 ± 0.049.

In the case of CUAUUCCUCUGGAUCUACUGGGAUUACCUAA, the “pre-steady-state target cleavage rate” value turned out to be 0.202 ± 0.041.

In the case of GAAUUCCUCUGGAUCUACUGGGAUUCCUAA, the “pre-steady-state target cleavage rate” value was 0.0604 ± 0.021.

As to CUUAAGCUCUGGAUCUACUGCGUUACGUAA, the “pre-steady-state target cleavage rate” value came out at 0.209 ± 0.023.

As for CUUUUCGUCUGGAUCUACUGGGUUACCAAA, the “pre-steady-state target cleavage rate” value turned out to be 0.239 ± 0.045.

Regarding CUUAAGGAGUGGAUCUACUGGGUGACCUAA, the “pre-steady-state target cleavage rate” value is 0.0213 ± 0.0095.

With CUUAAGCUCUGGAUCUACAGCGUUACCUAA, the “pre-steady-state target cleavage rate” value amounted to 0.067 ± 0.013.

Regarding CUUUUCCUCUGGAUCAACUGGGUUAGCUAA, the “pre-steady-state target cleavage rate” value turned out to be 0.134 ± 0.029.

As for CUAAUCCUCAGGAUCUACUGGGUUACCUAA, the “pre-steady-state target cleavage rate” value came to 0.55 ± 0.055.

Turning to GAAUUCGUCUGGAUCUACUGGGUUACCUAA, the “pre-steady-state target cleavage rate” value came to 0.393 ± 0.059.

On to CUUAACCUCUGGAUCUACUCGGAUACCUAA, for which the “pre-steady-state target cleavage rate” value was 0.0189 ± 0.01.

Take CUUAAGCUCUGGAUCUACACGGUUACCUAA: the “pre-steady-state target cleavage rate” value is 0.0859 ± 0.011.

With CUUAAGGUCUGGAUCUACACGGUUACCUAA, the “pre-steady-state target cleavage rate” value was found to be 0.126 ± 0.016.

Turning to GAAUUCCUCUGGAUCUACUGGGUUACCAA, the “pre-steady-state target cleavage rate” value is 0.381 ± 0.064.

Turning to CAAUUCCUCUUGAUCUACUGGGUUACCUAA, the “pre-steady-state target cleavage rate” value was 0.866 ± 0.044.

On to CUUAAGGUCUUGGAUCUACUGGGUUACCUAA, for which the “pre-steady-state target cleavage rate” value was found to be 0.291 ± 0.03.

With GAAUUGCUCUCGAUCUACUGGGUUACCUAA, the “pre-steady-state target cleavage rate” value was 0.452 ± 0.071.

With CUAUUCCUCUGGAUCUAGAGGGUUACCUAA, the “pre-steady-state target cleavage rate” value turned out to be 0.0256 ± 0.0071.

On to CUUAAGGACAGGAUCUACUCGGUUACCUAA, for which the “pre-steady-state target cleavage rate” value was 0.00947 ± 0.0079.

Consider GAAUUCCUCUGGAUGUUCUGGGUUACCUAA, for which the “pre-steady-state target cleavage rate” value is 0.268 ± 0.035.

For the sequence CUUAAGGUCUGGACUCUACUGGGUUACCUAA, the “pre-steady-state target cleavage rate” value was 0.0637 ± 0.021.

With CUUAUCCUCUGGAUCUACUCGGUUACGUAA, the “pre-steady-state target cleavage rate” value came to 0.117 ± 0.036.

For CUUAUCCUCUGGUUCAACUGGGUUACCUAA, the “pre-steady-state target cleavage rate” value was 0.469 ± 0.034.

In the case of CAAUUCCUCUGGAUCUACUGGGUUUGGUAA, the “pre-steady-state target cleavage rate” value is 0.0353 ± 0.017.

On to CUAUUCCUCUGGAUCUACUGGGUUACCUUAA, for which the “pre-steady-state target cleavage rate” value was 0.302 ± 0.043.

Consider “GAAUUCCUCUGGAUCUACUGGGUUUGGAUA [g7:g30:cont:t1A]”, for which the “pre-steady-state target cleavage rate” value worked out at 0.176 ± 0.059.

Turning to CAAUUCCUCUGGAUCUACUGGGUUGACCUAA, the “pre-steady-state target cleavage rate” value worked out at 0.35 ± 0.045.

As to CUAUUCGUCUCGAUCUACUGGGUUACCUAA, the “pre-steady-state target cleavage rate” value is 0.599 ± 0.055.

On to CAAUUCCUCUGGAUCUACGGGUUACCUAA, for which the “pre-steady-state target cleavage rate” value came to 0.0524 ± 0.011.

On to CUUUUCCUCUCGAACUACUGGGUUACCUAA, for which the “pre-steady-state target cleavage rate” value was 0.463 ± 0.033.

CUUAUCCUCUCGUUCUACUGGGUUACCUAA: the “pre-steady-state target cleavage rate” value is 0.41 ± 0.039.

Take CUUAACCUCUGGAACAACUGGGUUACCUAA: the “pre-steady-state target cleavage rate” value worked out at 0.257 ± 0.024.

On to CUUAACGACUGGAUCUACUGGGUUACCUAA, for which the “pre-steady-state target cleavage rate” value turned out to be 0.2 ± 0.036.

On to CUAUUCACUCUGGAUCUACUGGGUUACCUAA, for which the “pre-steady-state target cleavage rate” value was 0.241 ± 0.048.

With CUUAAGGUCUGGAACUACAGGGUUACCUAA, the “pre-steady-state target cleavage rate” value is 0.0897 ± 0.022.

As for CUUAACCUCUGGAUCUUCUGGGUUACCUUA, the “pre-steady-state target cleavage rate” value stood at 0.168 ± 0.028.

Turning to GAAUUCCUCUGGAACUACUGGCUUACCUAA, the “pre-steady-state target cleavage rate” value came to 0.133 ± 0.021.

For GAAUUCCUCUGGAUCUACUGGGUUUCCAAA, the “pre-steady-state target cleavage rate” value amounted to 0.143 ± 0.045.

For CUUUUCCUCUGGAUCUACUGGCUUACGUAA, the “pre-steady-state target cleavage rate” value came to 0.0801 ± 0.019.

For CUUAAGCUGUGGAACUACUGGGUUACCUAA, the “pre-steady-state target cleavage rate” value worked out at 0.075 ± 0.03.

GAAUUCCUCUGGAUCUACUGGGUCACCUAA: the “pre-steady-state target cleavage rate” value came to 0.232 ± 0.054.

In the case of CUAUUCCUCUGGAUCUUCUGCGUUACCUAA, the “pre-steady-state target cleavage rate” value turned out to be 0.243 ± 0.034.

For CUUAAGCUCUGCAUCUACUGGGUUACCUUA, the “pre-steady-state target cleavage rate” value was 0.0877 ± 0.015.

As for CUUAAGGUCUGGAACUACUGGGUUUCCUAA, the “pre-steady-state target cleavage rate” value was found to be 0.0283 ± 0.013.

On to CAAUUCCUGCUGGAUCUACUGGGUUACCUAA, for which the “pre-steady-state target cleavage rate” value came to 0.473 ± 0.051.

Take CUAUUGCUGUGGAUCUACUGGGUUACCUAA: the “pre-steady-state target cleavage rate” value turned out to be 0.322 ± 0.044.

For the sequence CUUUUCCUCUGGAUCUACUGGGUUACCUGA, the “pre-steady-state target cleavage rate” value came to 0.509 ± 0.15.

As to CUUAAGGAGACCAUCUACAGCGUUACCUAA, the “pre-steady-state target cleavage rate” value was 0.00739 ± 0.0012.

Take CUAAUCCACUGGAUCUACUGGGUUACCUAA: the “pre-steady-state target cleavage rate” value came to 0.441 ± 0.041.

On to CUUAUCCUCUGGUUCUACUGGCUUACCUAA, for which the “pre-steady-state target cleavage rate” value is 0.122 ± 0.012.

Take GAAUUCGUCUGGAUGUACUGGGUUACCUAA: the “pre-steady-state target cleavage rate” value turned out to be 0.0696 ± 0.037.

CUUAAGGUACUGGAUCUACUGGGUUACCUAA: the “pre-steady-state target cleavage rate” value was found to be 0.183 ± 0.026.

Regarding GAAUUCCUGUGGAUCUACUGCGUUACCUAA, the “pre-steady-state target cleavage rate” value was 0.362 ± 0.053.

Regarding CUUAAGCACUGGAUCUACUGGGUUACCAAA, the “pre-steady-state target cleavage rate” value is 0.202 ± 0.025.

As to CUUAAGGUCUGGAUCUACUGGGUUUCGUAA, the “pre-steady-state target cleavage rate” value came out at 0.0875 ± 0.017.

Consider CUAUUCCUCUCGAUCUAGUGGGUUACCUAA, for which the “pre-steady-state target cleavage rate” value stood at 0.353 ± 0.023.

On to CUUAUCCUCUGGAUGUUCUGGGUUACCUAA, for which the “pre-steady-state target cleavage rate” value was 0.332 ± 0.04.

In the case of GAAUUCCUCUGGAUCUACUGCGUUACCUUA, the “pre-steady-state target cleavage rate” value was 0.296 ± 0.05.

For CUUAUCCUGAGGAUCUACUGGGUUACCUAA, the “pre-steady-state target cleavage rate” value turned out to be 0.272 ± 0.034.

For the sequence GAAUUCGAGUGGAUCUACUGGGUUACCUAA, the “pre-steady-state target cleavage rate” value is 0.345 ± 0.033.

For CUUAAGGAGACCUAGAUGAGCGUUACCUAA, the “pre-steady-state target cleavage rate” value amounted to 0.00489 ± 0.0017.

On to GAAUUCCUCUGGAUCUACUGGGUUACUAA, for which the “pre-steady-state target cleavage rate” value was found to be 0.423 ± 0.054.

GAAUUCCGCUGGAUCUACUGGGUUACCUAA: the “pre-steady-state target cleavage rate” value came out at 0.445 ± 0.041.

On to CUUAAGGACUGGAUCUACUGGUUUACCUAA, for which the “pre-steady-state target cleavage rate” value was 0.0484 ± 0.036.

Take CUUAUCCUCUGGAUCAACUGGCUUACCUAA: the “pre-steady-state target cleavage rate” value was 0.0658 ± 0.014.

For CUUUUCCUCUGGAUCUACUGGGUUACCAUA, the “pre-steady-state target cleavage rate” value was determined as 0.437 ± 0.048.

Consider CUUAAGCUCUGGAUCUACUGGGUUACACUAA, for which the “pre-steady-state target cleavage rate” value came to 0.34 ± 0.038.

On to CUUAAGGUCUGGAUCUACUGGGUUACCGUAA, for which the “pre-steady-state target cleavage rate” value came to 0.205 ± 0.036.

In the case of CUAUUCCUCUGGUACUACUGGGUUACCUAA, the “pre-steady-state target cleavage rate” value is 0.459 ± 0.061.

As to CUUAACCUCUGGAUCUACUGGGUUACCUCAA, the “pre-steady-state target cleavage rate” value worked out at 0.142 ± 0.018.

On to CAAUUCCUCUGGAUGUACUGCGUUACCUAA, for which the “pre-steady-state target cleavage rate” value was 0.606 ± 0.1.

Turning to CUUUUCCUCUGUGAUCUACUGGGUUACCUAA, the “pre-steady-state target cleavage rate” value is 0.374 ± 0.028.

Take CUUAUCCUCUGUAUCUACUGGGUUACCUAA: the “pre-steady-state target cleavage rate” value came to 0.311 ± 0.033.

Turning to GAAUUCCUCUGGUUCUACUGGCUUACCUAA, the “pre-steady-state target cleavage rate” value worked out at 0.193 ± 0.019.

On to CUUAUCGUCUCGAUCUACUGGGUUACCUAA, for which the “pre-steady-state target cleavage rate” value was determined as 0.411 ± 0.052.

Regarding CUUAUCCUCUGGAUGUACUGGGUUUCCUAA, the “pre-steady-state target cleavage rate” value is 0.267 ± 0.06.

Take CUUAAGCUGUCGAUCUACUGGGUUACCUAA: the “pre-steady-state target cleavage rate” value is 0.061 ± 0.017.

With CUUAAGCUGUGGAUCUACAGGGUUACCUAA, the “pre-steady-state target cleavage rate” value was found to be 0.146 ± 0.025.

In the case of CUUUUCCUCUGGAUCUACAGGGAUACCUAA, the “pre-steady-state target cleavage rate” value amounted to 0.149 ± 0.017.

CAAUACCUCUGGAUCAACUGGGUUACCUAA: the “pre-steady-state target cleavage rate” value came to 0.315 ± 0.04.

As for CUUAAGGAGACCUACUACUGGGUUACGUAA, the “pre-steady-state target cleavage rate” value was found to be 0.00667 ± 0.003.

GAAUACCUCUGGAUCUACUCGGUUACCUAA: the “pre-steady-state target cleavage rate” value was 0.0912 ± 0.018.

For CUUUUCCUCUGGAUCUAGUGGGUUACCUAA, the “pre-steady-state target cleavage rate” value was 0.212 ± 0.021.

On to CUUAAGGUCUGGAUCAACUGGCUUACCUAA, for which the “pre-steady-state target cleavage rate” value turned out to be 0.0357 ± 0.013.

For CAAUUCCUCUGCGAUCUACUGGGUUACCUAA, the “pre-steady-state target cleavage rate” value was 0.623 ± 0.052.

As for CUAUUCCUCUGGAUCUACUGGGUUACCUCA, the “pre-steady-state target cleavage rate” value stood at 0.242 ± 0.042.

For CUAUACCUCUGGAUCUACUGGCUUACCUAA, the “pre-steady-state target cleavage rate” value was found to be 0.149 ± 0.025.

As to CUAUUCCUCUGGAUCUACUGGGUUACGUUA, the “pre-steady-state target cleavage rate” value is 0.401 ± 0.055.

For CUUUUCCUCUGGAUCUACUGGGUAACCUAA, the “pre-steady-state target cleavage rate” value came out at 0.216 ± 0.033.

With CUUAACCUCUGGAUCUAGUGGGUUUCCUAA, the “pre-steady-state target cleavage rate” value was 0.0372 ± 0.0055.
